# Experimental data published in article PMC9911399, “Two distinct binding modes provide the RNA-binding protein RbFox with extraordinary sequence specificity”.
# Substitutions are numbered along the chain they refer to; changes in the protein carry UniProt numbers. The list shows a part of the results.
# T1: RBFOX1 RRM RbFoxmut (Fox-RRM*) (Homo sapiens, UniProt Q9NWB1 109-208, R118D;E147R;N151S;E152T)
# T1 sequence: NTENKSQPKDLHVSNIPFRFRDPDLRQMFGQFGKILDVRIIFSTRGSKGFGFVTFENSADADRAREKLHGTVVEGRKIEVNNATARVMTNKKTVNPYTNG
# B1: CUCAUGC (DNA:RNA)
# RNA: GGGAGACCGGAAUUCAGAUUGUCCCUCAUGCUUAAAUCCCGUCGUAGCCACCA
# DNA 1: CAATCTGAATTCCGGTCTCCC
# DNA 2: TGGTGGCTACGACGGGATT
# B2: AGGAACG (DNA:RNA)
# RNA: B1 RNA with C25A, U26G, C27G, U29A, G30C, C31G
# DNA 1: CAATCTGAATTCCGGTCTCCC
# DNA 2: TGGTGGCTACGACGGGATT
# B3: AGACAUU (DNA:RNA)
# RNA: GGGAGACCGGAAUUCAGAUUGUCCAGACAUUUUAAAUCCCGUCGUAGCCACCA
# DNA 1: CAATCTGAATTCCGGTCTCCC
# DNA 2: TGGTGGCTACGACGGGATT
# B4: UGGAUUU (DNA:RNA)
# RNA: B3 RNA with A25U, A27G, C28A, A29U
# DNA 1: CAATCTGAATTCCGGTCTCCC
# DNA 2: TGGTGGCTACGACGGGATT
# B5: UAUAAUC (DNA:RNA)
# RNA: B3 RNA with A25U, G26A, A27U, C28A, U31C
# DNA 1: CAATCTGAATTCCGGTCTCCC
# DNA 2: TGGTGGCTACGACGGGATT
# B6: GGUCGUA (DNA:RNA)
# RNA: B3 RNA with A25G, A27U, A29G, U31A
# DNA 1: CAATCTGAATTCCGGTCTCCC
# DNA 2: TGGTGGCTACGACGGGATT
# B7: GAGCCUC (DNA:RNA)
# RNA: B3 RNA with A25G, G26A, A27G, A29C, U31C
# DNA 1: CAATCTGAATTCCGGTCTCCC
# DNA 2: TGGTGGCTACGACGGGATT
# B8: AAAAUGC (DNA:RNA)
# RNA: B1 RNA with C25A, U26A, C27A
# DNA 1: CAATCTGAATTCCGGTCTCCC
# DNA 2: TGGTGGCTACGACGGGATT
# B9: GAGGCUU (DNA:RNA)
# RNA: B3 RNA with A25G, G26A, A27G, C28G, A29C
# DNA 1: CAATCTGAATTCCGGTCTCCC
# DNA 2: TGGTGGCTACGACGGGATT
# B10: GCACAGG (DNA:RNA)
# RNA: B3 RNA with A25G, G26C, U30G, U31G
# DNA 1: CAATCTGAATTCCGGTCTCCC
# DNA 2: TGGTGGCTACGACGGGATT
# B11: AGUUCAC (DNA:RNA)
# RNA: B3 RNA with A27U, C28U, A29C, U30A, U31C
# DNA 1: CAATCTGAATTCCGGTCTCCC
# DNA 2: TGGTGGCTACGACGGGATT
# B12: AGUGGAG (DNA:RNA)
# RNA: B3 RNA with A27U, C28G, A29G, U30A, U31G
# DNA 1: CAATCTGAATTCCGGTCTCCC
# DNA 2: TGGTGGCTACGACGGGATT
# B13: CACACAG (DNA:RNA)
# RNA: B1 RNA with U26A, U29C, G30A, C31G
# DNA 1: CAATCTGAATTCCGGTCTCCC
# DNA 2: TGGTGGCTACGACGGGATT
# B14: ACCCGUG (DNA:RNA)
# RNA: B3 RNA with G26C, A27C, A29G, U31G
# DNA 1: CAATCTGAATTCCGGTCTCCC
# DNA 2: TGGTGGCTACGACGGGATT
# B15: AUCUUUG (DNA:RNA)
# RNA: B1 RNA with C25A, A28U, G30U, C31G
# DNA 1: CAATCTGAATTCCGGTCTCCC
# DNA 2: TGGTGGCTACGACGGGATT
# B16: UGCACGC (DNA:RNA)
# RNA: B1 RNA with C25U, U26G, U29C
# DNA 1: CAATCTGAATTCCGGTCTCCC
# DNA 2: TGGTGGCTACGACGGGATT
# B17: UCAGACC (DNA:RNA)
# RNA: B3 RNA with A25U, G26C, C28G, U30C, U31C
# DNA 1: CAATCTGAATTCCGGTCTCCC
# DNA 2: TGGTGGCTACGACGGGATT
# B18: CUAUCGG (DNA:RNA)
# RNA: B1 RNA with C27A, A28U, U29C, C31G
# DNA 1: CAATCTGAATTCCGGTCTCCC
# DNA 2: TGGTGGCTACGACGGGATT
# B19: GGCGCUA (DNA:RNA)
# RNA: B3 RNA with A25G, A27C, C28G, A29C, U31A
# DNA 1: CAATCTGAATTCCGGTCTCCC
# DNA 2: TGGTGGCTACGACGGGATT
# B20: AUCGGAG (DNA:RNA)
# RNA: B1 RNA with C25A, A28G, U29G, G30A, C31G
# DNA 1: CAATCTGAATTCCGGTCTCCC
# DNA 2: TGGTGGCTACGACGGGATT
# B21: AAGCUAC (DNA:RNA)
# RNA: B3 RNA with G26A, A27G, A29U, U30A, U31C
# DNA 1: CAATCTGAATTCCGGTCTCCC
# DNA 2: TGGTGGCTACGACGGGATT
# B22: AUGUACG (DNA:RNA)
# RNA: B3 RNA with G26U, A27G, C28U, U30C, U31G
# DNA 1: CAATCTGAATTCCGGTCTCCC
# DNA 2: TGGTGGCTACGACGGGATT
# B23: GGCGAUA (DNA:RNA)
# RNA: B3 RNA with A25G, A27C, C28G, U31A
# DNA 1: CAATCTGAATTCCGGTCTCCC
# DNA 2: TGGTGGCTACGACGGGATT
# B24: AAGUAUC (DNA:RNA)
# RNA: B3 RNA with G26A, A27G, C28U, U31C
# DNA 1: CAATCTGAATTCCGGTCTCCC
# DNA 2: TGGTGGCTACGACGGGATT
# B25: AACAGGC (DNA:RNA)
# RNA: B1 RNA with C25A, U26A, U29G
# DNA 1: CAATCTGAATTCCGGTCTCCC
# DNA 2: TGGTGGCTACGACGGGATT
# B26: GGAGCGU (DNA:RNA)
# RNA: B3 RNA with A25G, C28G, A29C, U30G
# DNA 1: CAATCTGAATTCCGGTCTCCC
# DNA 2: TGGTGGCTACGACGGGATT
# B27: CACAAAU (DNA:RNA)
# RNA: B1 RNA with U26A, U29A, G30A, C31U
# DNA 1: CAATCTGAATTCCGGTCTCCC
# DNA 2: TGGTGGCTACGACGGGATT
# B28: AGAGGUG (DNA:RNA)
# RNA: B3 RNA with C28G, A29G, U31G
# DNA 1: CAATCTGAATTCCGGTCTCCC
# DNA 2: TGGTGGCTACGACGGGATT
# B29: CUUGGGU (DNA:RNA)
# RNA: B1 RNA with C27U, A28G, U29G, C31U
# DNA 1: CAATCTGAATTCCGGTCTCCC
# DNA 2: TGGTGGCTACGACGGGATT
# B30: CAGAACU (DNA:RNA)
# RNA: B3 RNA with A25C, G26A, A27G, C28A, U30C
# DNA 1: CAATCTGAATTCCGGTCTCCC
# DNA 2: TGGTGGCTACGACGGGATT
# B31: UCAUUGG (DNA:RNA)
# RNA: B1 RNA with C25U, U26C, C27A, A28U, C31G
# DNA 1: CAATCTGAATTCCGGTCTCCC
# DNA 2: TGGTGGCTACGACGGGATT
# Target: T1, RBFOX1 RRM RbFoxmut (Fox-RRM*)
# Assay: EMSA; HiTS-Eq, 1 nM pool, 10 min; buffer printed only for the single-RNA assays: 10 mM Tris pH 7.5, 150 mM NaCl, 3.4 mM EDTA, 0.001% NP-40, 30 C
# Details: tags: His6 N-terminal (pET28a); label: 5' 32P
# Summary of the method: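 Purified RbFox RRM (wild type or mutant) was equilibrated for 10 min in 50 µL with 1 nM of a 5′-radiolabelled pool of RNA with 7 randomized nucleotides, its flanks annealed to DNA oligonucleotides, across increasing protein concentrations. Free RNA was separated by 8% native PAGE, excised, reverse-transcribed, PCR-barcoded and sequenced on an Illumina HiSeq 2500. Relative association constants came from read-count changes of each variant against the control reaction, normalised to the cognate motif.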
row,Binder,binding signal
1,B1,0.112 KA relative to UGCAUGU
2,B2,0.576 KA relative to UGCAUGU
3,B3,0.0594 KA relative to UGCAUGU
4,B4,0.0654 KA relative to UGCAUGU
5,B5,0.0553 KA relative to UGCAUGU
6,B6,0.122 KA relative to UGCAUGU
7,B7,0.061 KA relative to UGCAUGU
8,B8,0.0633 KA relative to UGCAUGU
9,B9,0.0844 KA relative to UGCAUGU
10,B10,0.115 KA relative to UGCAUGU
11,B11,0.079 KA relative to UGCAUGU
12,B12,0.124 KA relative to UGCAUGU
13,B13,0.0853 KA relative to UGCAUGU
14,B14,0.111 KA relative to UGCAUGU
15,B15,0.132 KA relative to UGCAUGU
16,B16,0.232 KA relative to UGCAUGU

row,Binder,binding signal
1,B17,0.0827 KA relative to UGCAUGU
2,B18,0.0809 KA relative to UGCAUGU
3,B19,0.0705 KA relative to UGCAUGU
4,B20,0.132 KA relative to UGCAUGU
5,B21,0.126 KA relative to UGCAUGU
6,B22,0.322 KA relative to UGCAUGU
7,B23,0.0912 KA relative to UGCAUGU
8,B24,0.151 KA relative to UGCAUGU
9,B25,0.0663 KA relative to UGCAUGU
10,B26,0.124 KA relative to UGCAUGU
11,B27,0.063 KA relative to UGCAUGU
12,B28,0.134 KA relative to UGCAUGU
13,B29,0.115 KA relative to UGCAUGU
14,B30,0.111 KA relative to UGCAUGU
15,B31,0.106 KA relative to UGCAUGU
